Reference: PubChem BioAssay AID504845 (National Center for Advancing Translational Sciences (NCATS), 2011)
About 150 (0.038%) of roughly 390,000 compounds were called active. The shares of active, inactive and inconclusive entries below differ from those in the screen. Calls come from the whole dose curve; as a rule, active = well fitted inhibition curve with a large enough effect; inconclusive = small, poorly fitted or top-dose-only effect; inactive = no such curve, though single readings can be large or run the other way. Potencies beside an inconclusive call are fits to weak or partial responses and may not hold up.

The molecules below were run against Regulator of G-protein signaling 4 (Homo sapiens) (UniProt P49798) (assay: Inhibitors of Regulator of G Protein Signaling (RGS) 4: qHTS). Conditions: Transcreener GDP fluorescence polarization, RGS4-accelerated GTP hydrolysis; series mostly up to 114 µM.
Chain of UniProt P49798 (P49798 whole entry, looked up): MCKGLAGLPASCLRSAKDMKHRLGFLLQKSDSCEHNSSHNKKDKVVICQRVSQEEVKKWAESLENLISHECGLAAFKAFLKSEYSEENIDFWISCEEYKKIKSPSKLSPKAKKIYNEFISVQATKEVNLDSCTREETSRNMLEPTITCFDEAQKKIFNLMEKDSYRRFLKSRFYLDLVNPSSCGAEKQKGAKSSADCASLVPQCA
Summary of the method: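 MLSMR compounds (23 nl, pin-transferred) preincubated 10 min at room temperature with a 500nM (2x) first reagent, then RGS4 at 900nM (2x) plus Transcreener GDP mix added; fluorescence polarization (620/688 nm) read before and after 90 min at 30 °C.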
Note: nearly all actives have a fitted effect of over 75% in size.
Potency is the fitted concentration of half-maximal effect; tags give direction and shape of the fitted curve.

Structure (SMILES) | Potency
CC(C)CC(=O)/C(=C\c1ccc(Cl)cc1Cl)n1cncn1 | inconclusive: 100 µM [inhibitor, partial curve, poor fit]
Cc1ccc(-n2nc(C(=O)N/N=C/c3cccc(C(F)(F)F)c3)c3ccccc3c2=O)cc1C | inconclusive: 79.4 µM [inhibitor, partial curve, poor fit]
O=C(Nc1sc2c(c1C(=O)NCc1ccco1)CCCC2)c1ccc2c(c1)OCO2 | inconclusive: 79.4 µM [inhibitor, single point]
CCOc1ccc(N2C(=O)C(Cl)=C(Nc3ccccc3O)C2=O)cc1 | inconclusive: 79.4 µM [inhibitor, single point]
COc1ccc(C(=O)n2nc(-c3ccco3)nc2NCc2cccs2)cc1OC | inactive
CCCc1nc2sc3c(c2c(=O)[nH]1)CCCC3 | inconclusive: 31.6 µM [inhibitor, full curve, poor fit]
O=C1c2sc3nc4c(c(=O)n3c2C(=O)N1c1ccccc1)CCC4 | inconclusive: 89.1 µM [inhibitor, single point]
O=[N+]([O-])c1ccccc1/C=N/n1c(C(F)(F)F)n[nH]c1=S | inconclusive: 10 µM [inhibitor, full curve, poor fit]
CN1CCN(c2ccc(NC(=O)COc3ccccc3Cl)cc2)CC1 | inconclusive: 89.1 µM [inhibitor, single point]
CN(C)S(=O)(=O)c1cccc(NC(=S)NNC(=O)c2cc3ccccc3cc2O)c1 | inconclusive: 50.1 µM [inhibitor, partial curve, poor fit]
CC(C)(C)c1cc(C(=O)NNc2cc(C(F)(F)F)ccc2Cl)n(Cc2ccccc2)n1 | inconclusive: 70.8 µM [inhibitor, single point]
NC(=O)SCC(=O)Nc1ccc(Cl)cc1 | inconclusive: 44.7 µM [inhibitor, partial curve, poor fit]
O=C(Cc1ccccc1)Nn1c(O)c(/C=C2\C=Nc3ccccc32)sc1=S | inactive
O=C(/C=C/c1ccc(F)cc1)Nc1ccc2[nH]c(=O)[nH]c2c1 | inactive
COC(CNC(=O)c1ccc2c3c(onc13)-c1ccccc1C2=O)OC | inconclusive: 35.5 µM [inhibitor, partial curve, poor fit]
COc1ccc(NC(=O)NNC(=O)c2ccc(-c3ccccc3)cc2)c(OC)c1 | inconclusive: 100 µM [inhibitor, single point]
N=C1/C(=C\c2coc3ccccc3c2=O)C(=O)N=C2SC(c3ccncc3)=NN12 | inconclusive: 50.1 µM [inhibitor, partial curve, poor fit]
